From the supplement of paper PMC8728848
The other results are listed elsewhere or left out.

Tests used:
Assay in all cases: glycan array binding signal (z-score within array); higher = stronger binding
Conditions in all cases: glycan notation: IUPAC condensed, linker removed
[1] = molecular target: Neu5Ac(a2-3)Gal(b1-4)GlcNAc(b1-3)Gal(b1-4)GlcNAc(b1-2)Man(a1-3)[Neu5Ac(a2-3)Gal(b1-4)GlcNAc(b1-3)Gal(b1-4)GlcNAc(b1-2)Man(a1-6)]Man(b1-4)GlcNAc(b1-4)GlcNAc
How it was run: (§1)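 Glycan array binding is given as a within-array Z-score, which can be read as non-binding when negative. The arrays, 3228 of them, came from the Consortium for Functional Glycomics database and were retained only where the protein sequence was available. Z-scores were averaged across arrays of the same protein sequence at different concentrations or buffers and across linkers.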

[2] = molecular target: Neu5Ac(a2-3)Gal(b1-4)GlcNAc(b1-3)Gal(b1-4)GlcNAc(b1-3)Gal(b1-4)GlcNAc
How it was run: as §1

[3] = molecular target: Neu5Ac(a2-3)Gal(b1-4)GlcNAc(b1-3)Gal(b1-4)GlcNAc(b1-3)Gal(b1-4)GlcNAc(b1-2)Man(a1-3)[Neu5Ac(a2-3)Gal(b1-4)GlcNAc(b1-3)Gal(b1-4)GlcNAc(b1-3)Gal(b1-4)GlcNAc(b1-2)Man(a1-6)]GalNAc
How it was run: as §1

[4] = molecular target: Neu5Ac(a2-3)Gal(b1-4)GlcNAc(b1-3)Gal(b1-4)GlcNAc(b1-3)GalNAc
How it was run: as §1

[5] = molecular target: Neu5Ac(a2-3)Gal(b1-4)GlcNAc(b1-3)Gal(b1-4)GlcNAc(b1-3)[Neu5Ac(a2-3)Gal(b1-4)GlcNAc(b1-3)Gal(b1-4)GlcNAc(b1-6)]GalNAc
How it was run: as §1

[6] = molecular target: Neu5Ac(a2-3)Gal(b1-4)GlcNAc(b1-3)Gal(b1-4)GlcNAc(b1-6)[Gal(b1-3)]GalNAc
How it was run: as §1

[7] = molecular target: Neu5Ac(a2-3)Gal(b1-4)GlcNAc(b1-3)Gal(b1-4)[Fuc(a1-3)]GlcNAc
How it was run: as §1

[8] = molecular target: Neu5Ac(a2-3)Gal(b1-4)GlcNAc(b1-3)GalNAc
How it was run: as §1

[9] = molecular target: Neu5Ac(a2-3)Gal(b1-4)GlcNAc(b1-3)[Neu5Ac(a2-3)Gal(b1-4)GlcNAc(b1-6)]GalNAc
How it was run: as §1

[10] = molecular target: Neu5Ac(a2-3)Gal(b1-4)GlcNAc(b1-6)GalNAc
How it was run: as §1

[11] = molecular target: Neu5Ac(a2-3)Gal(b1-4)GlcNAc(b1-6)[Gal(b1-3)]GalNAc
How it was run: as §1

[12] = molecular target: Neu5Ac(a2-3)Gal(b1-4)GlcNAc(b1-6)[Neu5Ac(a2-3)Gal(b1-3)]GalNAc
How it was run: as §1

[13] = molecular target: Neu5Ac(a2-3)Gal(b1-4)GlcNAc6S
How it was run: as §1

[14] = molecular target: Neu5Ac(a2-3)Gal(b1-4)[Fuc(a1-3)]GlcNAc
How it was run: as §1

[15] = molecular target: Neu5Ac(a2-3)Gal(b1-4)[Fuc(a1-3)]GlcNAc(b1-2)Man
How it was run: as §1

[16] = molecular target: Neu5Ac(a2-3)Gal(b1-4)[Fuc(a1-3)]GlcNAc(b1-3)Gal
How it was run: as §1

[17] = molecular target: Neu5Ac(a2-3)Gal(b1-4)[Fuc(a1-3)]GlcNAc(b1-3)Gal(b1-4)GlcNAc
How it was run: as §1

[18] = molecular target: Neu5Ac(a2-3)Gal(b1-4)[Fuc(a1-3)]GlcNAc(b1-3)Gal(b1-4)[Fuc(a1-3)]GlcNAc(b1-3)Gal(b1-4)[Fuc(a1-3)]GlcNAc
How it was run: as §1

[19] = molecular target: Neu5Ac(a2-3)Gal(b1-4)[Fuc(a1-3)]GlcNAc(b1-3)GalNAc
How it was run: as §1

[20] = molecular target: Neu5Ac(a2-3)Gal(b1-4)[Fuc(a1-3)]GlcNAc(b1-6)[Gal(b1-3)]GalNAc
How it was run: as §1

[21] = molecular target: Neu5Ac(a2-3)Gal(b1-4)[Fuc(a1-3)]GlcNAc(b1-6)[Neu5Ac(a2-3)Gal(b1-3)]GalNAc
How it was run: as §1

[22] = molecular target: Neu5Ac(a2-3)Gal(b1-4)[Fuc(a1-3)]GlcNAc6S
How it was run: as §1

[23] = molecular target: Neu5Ac(a2-3)Gal6S(b1-4)GlcNAc
How it was run: as §1

[24] = molecular target: Neu5Ac(a2-3)Gal6S(b1-4)[Fuc(a1-3)]GlcNAc
How it was run: as §1

Neu5Ac(a2-3)GalNAc = molecular target: Neu5Ac(a2-3)GalNAc
How it was run: as §1

[25] = molecular target: Neu5Ac(a2-3)GalNAc(b1-4)GlcNAc
How it was run: as §1

[26] = molecular target: Neu5Ac(a2-3)[GalNAc(b1-4)]Gal(b1-4)Glc
How it was run: as §1

[27] = molecular target: Neu5Ac(a2-3)[GalNAc(b1-4)]Gal(b1-4)GlcNAc
How it was run: as §1

[28] = molecular target: Neu5Ac(a2-3)[GalNAc(b1-4)]Gal(b1-4)GlcNAc(b1-3)GalNAc
How it was run: as §1

[29] = molecular target: Neu5Ac(a2-3)[Neu5Ac(a2-6)]GalNAc
How it was run: as §1

Neu5Ac(a2-6)Gal = molecular target: Neu5Ac(a2-6)Gal
How it was run: as §1

[30] = molecular target: Neu5Ac(a2-6)Gal(b1-3)GlcNAc(b1-3)[Gal(b1-4)GlcNAc(b1-6)]Gal(b1-4)Glc
How it was run: as §1

Neu5Ac(a2-6)Gal(b1-4)Glc = molecular target: Neu5Ac(a2-6)Gal(b1-4)Glc
How it was run: as §1

[31] = molecular target: Neu5Ac(a2-6)Gal(b1-4)GlcNAc
How it was run: as §1

[32] = molecular target: Neu5Ac(a2-6)Gal(b1-4)GlcNAc(b1-2)Man
How it was run: as §1

[33] = molecular target: Neu5Ac(a2-6)Gal(b1-4)GlcNAc(b1-2)Man(a1-3)Man(b1-4)GlcNAc(b1-4)GlcNAc
How it was run: as §1

[34] = molecular target: Neu5Ac(a2-6)Gal(b1-4)GlcNAc(b1-2)Man(a1-3)[Gal(b1-4)GlcNAc(b1-2)Man(a1-6)]Man(b1-4)GlcNAc(b1-4)GlcNAc
How it was run: as §1

[35] = molecular target: Neu5Ac(a2-6)Gal(b1-4)GlcNAc(b1-2)Man(a1-3)[GlcNAc(b1-2)Man(a1-6)]Man(b1-4)GlcNAc(b1-4)GlcNAc
How it was run: as §1

B1: Arath Fbox (Arabidopsis thaliana), NP_178341.1 (protein)
chain: EFTWGRKRRVKSESSPFDSFPEDCISYIISFTNPRDACVAATVSKTFESTVKSDIIWEKFLPADYESLIPPSRVFSSKKELYFSLCNDPVLFDDDKKSVWLEKASGKRCLMLSAMNLSIIWGDNPQYWQWIPIPESRFEKVAKLRDVCWFEIRGRTNTRVLSPRTRYSAYIVFKGVDKCYGFQNVAIEAAVGVVGQEPSRRLICFSEAIRRGRRNVVKPKQREDGWMEIELGEFFNDGGIMDNDEIEMSALETKQLNRKCGLIIQGIEIRPAKILAAAAASFLEQKLISEEDLNSAVDHHHHHH
[1]
  glycan array binding signal (z-score): 2.64
[2]
  glycan array binding signal (z-score): -0.498
[3]
  glycan array binding signal (z-score): -0.094
[4]
  glycan array binding signal (z-score): -0.281
[5]
  glycan array binding signal (z-score): -0.569
[6]
  glycan array binding signal (z-score): -0.54
[7]
  glycan array binding signal (z-score): -0.365
[8]
  glycan array binding signal (z-score): -0.768
[9]
  glycan array binding signal (z-score): -0.768
[10]
  glycan array binding signal (z-score): 0.075
[11]
  glycan array binding signal (z-score): 1.6
[12]
  glycan array binding signal (z-score): -0.718
[13]
  glycan array binding signal (z-score): 0.949
[14]
  glycan array binding signal (z-score): -0.673
[15]
  glycan array binding signal (z-score): -0.423
[16]
  glycan array binding signal (z-score): -0.54
[17]
  glycan array binding signal (z-score): 0.309
[18]
  glycan array binding signal (z-score): -0.557
[19]
  glycan array binding signal (z-score): 2.69
[20]
  glycan array binding signal (z-score): 0.975
[21]
  glycan array binding signal (z-score): 2.17
[22]
  glycan array binding signal (z-score): -0.627
[23]
  glycan array binding signal (z-score): -0.45
[24]
  glycan array binding signal (z-score): -0.559
Neu5Ac(a2-3)GalNAc
  glycan array binding signal (z-score): -0.404
[25]
  glycan array binding signal (z-score): -0.734
[26]
  glycan array binding signal (z-score): -0.122
[27]
  glycan array binding signal (z-score): -0.659
[28]
  glycan array binding signal (z-score): -0.439
[29]
  glycan array binding signal (z-score): -0.205
Neu5Ac(a2-6)Gal
  glycan array binding signal (z-score): 0.211
[30]
  glycan array binding signal (z-score): -0.627
Neu5Ac(a2-6)Gal(b1-4)Glc
  glycan array binding signal (z-score): -0.577
[31]
  glycan array binding signal (z-score): 0.207
[32]
  glycan array binding signal (z-score): 1.84
[33]
  glycan array binding signal (z-score): -0.179
[34]
  glycan array binding signal (z-score): -0.062
[35]
  glycan array binding signal (z-score): -0.546
